Measurements from the supplement of paper PMC8728848.
The list shows a part of the results.

How the values were obtained:
Test in all cases: glycan array binding signal (z-score within array); higher = stronger binding
Conditions in all cases: glycan notation: IUPAC condensed, linker removed
[1] = target: Neu5Ac(a2-6)Gal(b1-4)GlcNAc(b1-3)Gal(b1-4)GlcNAc(b1-3)GalNAc
Procedure, shortened: (§1)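 Glycan array data were curated from 3228 arrays in the Consortium for Functional Glycomics database and kept only where the protein sequence was available. Glycan names were converted to IUPAC-condensed notation, and columns mapping to the same glycan were averaged. The binding signal is a within-array Z-score, averaged across arrays of the same protein sequence at different concentrations or buffers and across linkers. Negative Z-scores can be read as non-binding.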

[2] = target: Neu5Ac(a2-6)Gal(b1-4)GlcNAc(b1-3)Gal(b1-4)GlcNAc(b1-3)[Neu5Ac(a2-6)Gal(b1-4)GlcNAc(b1-3)Gal(b1-4)GlcNAc(b1-6)]GalNAc
Procedure, shortened: as §1

[3] = target: Neu5Ac(a2-6)Gal(b1-4)GlcNAc(b1-3)Gal(b1-4)GlcNAc(b1-6)[Gal(b1-3)]GalNAc
Procedure, shortened: as §1

[4] = target: Neu5Ac(a2-6)Gal(b1-4)GlcNAc(b1-3)Gal(b1-4)[Fuc(a1-3)]GlcNAc(b1-3)Gal(b1-4)[Fuc(a1-3)]GlcNAc
Procedure, shortened: as §1

[5] = target: Neu5Ac(a2-6)Gal(b1-4)GlcNAc(b1-3)GalNAc
Procedure, shortened: as §1

[6] = target: Neu5Ac(a2-6)Gal(b1-4)GlcNAc(b1-3)[Neu5Ac(a2-6)Gal(b1-4)GlcNAc(b1-6)]GalNAc
Procedure, shortened: as §1

[7] = target: Neu5Ac(a2-6)Gal(b1-4)GlcNAc(b1-6)GalNAc
Procedure, shortened: as §1

[8] = target: Neu5Ac(a2-6)Gal(b1-4)GlcNAc(b1-6)[Gal(b1-3)GlcNAc(b1-3)]Gal(b1-4)Glc
Procedure, shortened: as §1

[9] = target: Neu5Ac(a2-6)Gal(b1-4)GlcNAc(b1-6)[Gal(b1-3)]GalNAc
Procedure, shortened: as §1

[10] = target: Neu5Ac(a2-6)Gal(b1-4)GlcNAc6S
Procedure, shortened: as §1

Neu5Ac(a2-6)GalNAc = target: Neu5Ac(a2-6)GalNAc
Procedure, shortened: as §1

[11] = target: Neu5Ac(a2-6)GalNAc(b1-4)GlcNAc
Procedure, shortened: as §1

[12] = target: Neu5Ac(a2-6)GalNAc(b1-4)GlcNAc6S
Procedure, shortened: as §1

[13] = target: Neu5Ac(a2-6)GlcNAc(b1-4)GlcNAc
Procedure, shortened: as §1

[14] = target: Neu5Ac(a2-6)GlcNAc(b1-4)GlcNAc(b1-4)GlcNAc
Procedure, shortened: as §1

Neu5Ac(a2-8)Neu5Ac = target: Neu5Ac(a2-8)Neu5Ac
Procedure, shortened: as §1

[15] = target: Neu5Ac(a2-8)Neu5Ac(a2-3)Gal(b1-3)GalNAc(b1-4)[Neu5Ac(a2-3)]Gal(b1-4)Glc
Procedure, shortened: as §1

[16] = target: Neu5Ac(a2-8)Neu5Ac(a2-3)Gal(b1-3)GalNAc(b1-4)[Neu5Ac(a2-8)Neu5Ac(a2-3)]Gal(b1-4)Glc
Procedure, shortened: as §1

[17] = target: Neu5Ac(a2-8)Neu5Ac(a2-3)Gal(b1-4)Glc
Procedure, shortened: as §1

[18] = target: Neu5Ac(a2-8)Neu5Ac(a2-3)Gal(b1-4)GlcNAc
Procedure, shortened: as §1

[19] = target: Neu5Ac(a2-8)Neu5Ac(a2-3)[Gal(b1-3)GalNAc(b1-4)]Gal(b1-4)Glc
Procedure, shortened: as §1

[20] = target: Neu5Ac(a2-8)Neu5Ac(a2-3)[GalNAc(b1-4)]Gal(b1-4)Glc
Procedure, shortened: as §1

[21] = target: Neu5Ac(a2-8)Neu5Ac(a2-8)Neu5Ac
Procedure, shortened: as §1

[22] = target: Neu5Ac(a2-8)Neu5Ac(a2-8)Neu5Ac(a2-3)Gal(b1-4)Glc
Procedure, shortened: as §1

[23] = target: Neu5Ac(a2-8)Neu5Ac(a2-8)Neu5Ac(a2-3)[Gal(b1-3)GalNAc(b1-4)]Gal(b1-4)Glc
Procedure, shortened: as §1

[24] = target: Neu5Ac(a2-8)Neu5Ac(a2-8)Neu5Ac(a2-3)[GalNAc(b1-4)]Gal(b1-4)Glc
Procedure, shortened: as §1

[25] = target: Neu5Ac(a2-8)Neu5Ac(a2-8)Neu5Ac(a2-8)Neu5Ac(a2-3)[GalNAc(b1-4)]Gal(b1-4)Glc
Procedure, shortened: as §1

[26] = target: Neu5Ac(a2-8)Neu5Gc(a2-3)Gal(b1-4)GlcNAc
Procedure, shortened: as §1

[27] = target: Neu5Ac(b2-6)Gal(b1-4)GlcNAc
Procedure, shortened: as §1

Neu5Ac(b2-6)GalNAc = target: Neu5Ac(b2-6)GalNAc
Procedure, shortened: as §1

[28] = target: Neu5Ac9Ac(a2-3)Gal(b1-3)GlcNAc
Procedure, shortened: as §1

[29] = target: Neu5Ac9Ac(a2-3)Gal(b1-4)GlcNAc
Procedure, shortened: as §1

[30] = target: Neu5Ac9Ac(a2-6)Gal(b1-4)GlcNAc
Procedure, shortened: as §1

[31] = target: Neu5Gc(a2-3)Gal(b1-3)GlcNAc
Procedure, shortened: as §1

[32] = target: Neu5Gc(a2-3)Gal(b1-3)[Fuc(a1-4)]GlcNAc
Procedure, shortened: as §1

Neu5Gc(a2-3)Gal(b1-4)Glc = target: Neu5Gc(a2-3)Gal(b1-4)Glc
Procedure, shortened: as §1

[33] = target: Neu5Gc(a2-3)Gal(b1-4)GlcNAc
Procedure, shortened: as §1

[34] = target: Neu5Gc(a2-3)Gal(b1-4)GlcNAc(b1-3)Gal(b1-4)GlcNAc(b1-2)Man(a1-3)[Neu5Gc(a2-3)Gal(b1-4)GlcNAc(b1-3)Gal(b1-4)GlcNAc(b1-2)Man(a1-6)]Man(b1-4)GlcNAc(b1-4)GlcNAc
Procedure, shortened: as §1

[35] = target: Neu5Gc(a2-3)Gal(b1-4)[Fuc(a1-3)]GlcNAc
Procedure, shortened: as §1

[36] = target: Neu5Gc(a2-6)Gal(b1-4)GlcNAc
Procedure, shortened: as §1

Neu5Gc(a2-6)GalNAc = target: Neu5Gc(a2-6)GalNAc
Procedure, shortened: as §1

[37] = target: Neu5Gc(a2-8)Neu5Ac(a2-3)Gal(b1-4)GlcNAc
Procedure, shortened: as §1

[38] = target: Neu5Gc(a2-8)Neu5Gc(a2-3)Gal(b1-4)GlcNAc
Procedure, shortened: as §1

[39] = target: Neu5Gc(a2-8)Neu5Gc(a2-3)Gal(b1-4)GlcNAc(b1-3)Gal(b1-4)GlcNAc
Procedure, shortened: as §1

[40] = target: Neu5Gc(a2-8)Neu5Gc(a2-6)Gal(b1-4)GlcNAc
Procedure, shortened: as §1

[41] = target: Neu5Gc(b2-6)Gal(b1-4)GlcNAc
Procedure, shortened: as §1

B1: PX14379A-bvu-539-28-539 (Bacteroides vulgatus) (protein)
chain: EPYSEIIEEDYVPTEADEIALLATTYSQLRFVMDWYGLFDLQEESGDVIVTPTRPNGWDDGGTYKQMHKHTWDNQQGQPQSIWDYCYKGIANANKILKRADEGFFTEESKPKVVAEVKGVRALWYSILCDTHGNIPIQTSFSEEVPVQSTRKQVFDFIINELKEVMPNLPTEVNKSTYGRLTQWGAKCLMARMYLNAGVYTGTPMWNECLEQCNDIINSGLFSLETNYTDIFKTENSGCVETIFAIPYDEVYNEGDNNGPVFGAHMKFLSSNSRKVFNMQTTPWGGSAANPQFINSYDPDDMRLKYTWLQGDQYSPDGVLITTFPNKLPSIYKTDTDDGYRVGKYEIKVGAKSLLSNDFPYFRYTEVLLMKAECLLRLGQNETEAAHIVSQIRERAFRESAHPEKATVDAAWLKGDTHINYGTLDEKGQIDDAGNTEVVELGGLYDEWGWEFAAEARRRTDMIRFGTYQKKSWFNHTPTANDLNGNSILFPIHLDHLNTNPNLQQNPGYAGK
glycan array binding signal (z-score) [1]: -0.208
glycan array binding signal (z-score) [2]: -0.191
glycan array binding signal (z-score) [3]: -0.111
glycan array binding signal (z-score) [4]: -0.295
glycan array binding signal (z-score) [5]: -0.204
glycan array binding signal (z-score) [6]: -0.287
glycan array binding signal (z-score) [7]: -0.176
glycan array binding signal (z-score) [8]: -0.344
glycan array binding signal (z-score) [9]: -0.4
glycan array binding signal (z-score) [10]: -0.432
glycan array binding signal (z-score) (Neu5Ac(a2-6)GalNAc): -0.471
glycan array binding signal (z-score) [11]: -0.211
glycan array binding signal (z-score) [12]: -0.014
glycan array binding signal (z-score) [13]: -0.56
glycan array binding signal (z-score) [14]: -0.16
glycan array binding signal (z-score) (Neu5Ac(a2-8)Neu5Ac): -0.351
glycan array binding signal (z-score) [15]: -0.095
glycan array binding signal (z-score) [16]: -0.485
glycan array binding signal (z-score) [17]: -0.24
glycan array binding signal (z-score) [18]: -0.347
glycan array binding signal (z-score) [19]: -0.107
glycan array binding signal (z-score) [20]: -0.384
glycan array binding signal (z-score) [21]: -0.382
glycan array binding signal (z-score) [22]: -0.32
glycan array binding signal (z-score) [23]: -0.208
glycan array binding signal (z-score) [24]: -0.358
glycan array binding signal (z-score) [25]: 1.54
glycan array binding signal (z-score) [26]: 7.1
glycan array binding signal (z-score) [27]: -0.246
glycan array binding signal (z-score) (Neu5Ac(b2-6)GalNAc): -0.457
glycan array binding signal (z-score) [28]: 0.023
glycan array binding signal (z-score) [29]: 0.203
glycan array binding signal (z-score) [30]: -0.431
glycan array binding signal (z-score) [31]: -0.228
glycan array binding signal (z-score) [32]: -0.268
glycan array binding signal (z-score) (Neu5Gc(a2-3)Gal(b1-4)Glc): -0.175
glycan array binding signal (z-score) [33]: 0.037
glycan array binding signal (z-score) [34]: 0.563
glycan array binding signal (z-score) [35]: -0.059
glycan array binding signal (z-score) [36]: -0.252
glycan array binding signal (z-score) (Neu5Gc(a2-6)GalNAc): -0.242
glycan array binding signal (z-score) [37]: -0.283
glycan array binding signal (z-score) [38]: -0.194
glycan array binding signal (z-score) [39]: -0.314
glycan array binding signal (z-score) [40]: -0.098
glycan array binding signal (z-score) [41]: -0.376
